Hit rate of the full screen: of about 48,000 compounds, about 1,200 (2.5%) were called active. Another 2% or so got no clear call; they are omitted.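 How the source made its calls: active means activation of at least 60% and not above a set upper limit (about 1 call in 100 departs from these limits); inconclusive means activation of 40% to 60%, or above that upper limit; inactive means activation under 40%.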 This is one part of the list.
molecular target: Probable G-protein coupled receptor 32 (Homo sapiens) (UniProt O75388); assay: qHTS for Agonists of Human Resolvin D1 Receptor DRV1; settings: CHO-K1 GPR32 beta-arrestin PathHunter luminescence, 90 min; at 76.9 µM; stronger effect = higher value; zero percent set by DMSO-only wells; further: 0% is about no effect
Chain of UniProt O75388 (O75388 whole entry, looked up): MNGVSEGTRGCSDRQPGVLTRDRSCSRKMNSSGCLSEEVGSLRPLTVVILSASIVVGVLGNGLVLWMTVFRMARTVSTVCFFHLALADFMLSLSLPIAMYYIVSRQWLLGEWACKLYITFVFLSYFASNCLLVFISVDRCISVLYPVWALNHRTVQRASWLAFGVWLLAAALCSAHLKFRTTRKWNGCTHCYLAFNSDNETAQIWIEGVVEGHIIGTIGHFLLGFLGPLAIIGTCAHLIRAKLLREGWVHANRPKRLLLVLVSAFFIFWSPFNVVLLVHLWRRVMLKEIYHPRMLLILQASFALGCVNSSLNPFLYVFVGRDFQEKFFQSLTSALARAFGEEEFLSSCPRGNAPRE
Method in brief: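 Readings come from a cell-based beta-arrestin complementation format: CHO-K1 GPR32 stable cells (2,500/well) treated 90 min with compounds, then beta-Gal substrate added for 1 h before chemiluminescence imaging.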

activation, inactive:
Cc1ccc(C)c(Cn2c(=O)cc(C)c3c(C)nn(-c4cccc(F)c4)c32)c1 -3.62%
Cc1sc2ncn(CC(=O)N3CCN(c4cccc(Cl)c4)CC3)c(=O)c2c1S(=O)(=O)N1CCN(c2ncccn2)CC1 -6.13%
COc1ccccc1N1CCN(S(=O)(=O)CCNC(=O)COc2ccc(C(C)C)cc2)CC1 -2.62%
CCCN(CCC)CCNC(=O)c1ccc2c(c1)NC(=O)C(CS(=O)(=O)Cc1cccc(Br)c1)N2 (stereo unspecified) -20.9%
COc1ccc(-c2nc(C)c(CCNC(=O)C(=O)Nc3cc(C)cc(C)c3)s2)cc1OC 17.2%
COc1ccc(-c2nc(SCc3cc(=O)c4cc(C)ccc4[nH]3)n[nH]2)cc1 -18.2%
CCOc1ccccc1N1CC(c2nc3ccccc3n2Cc2c(C)cc(C)cc2C)CC1=O (stereo unspecified) -1.98%
COc1ccc(NC(=O)c2ccc3c(SCC(=O)O)c4c(nc3c2)CCC4)c(OC)c1 -11.9%
Cc1ccc(NC(=O)Cn2nc(C)n3cccc3c2=O)c(C)c1 0.347%
CC(=O)N1c2ccc(S(=O)(=O)NCC3CCC(C(=O)Nc4cccc(C)c4C)CC3)cc2CC1C (stereo unspecified) -4.94%
CCOCCCNC(=O)C(c1ccc(OC)cc1)N(Cc1ccc2c(c1)OCO2)C(=O)c1ccccc1O (stereo unspecified) -12.7%
Cc1ccccc1C(=O)Nc1c(C)nc(Nc2ccccc2)nc1Nc1ccccc1 5.32%
Cc1cccc(N2CCN(C(=O)c3cc4c(=O)n(C)c5ccccc5c4s3)CC2C)c1 (stereo unspecified) -2.7%
O=C(NCc1ccccc1)c1nc(S(=O)(=O)Cc2ccccc2)ncc1Cl -21.1%
CN1CCc2nc3sc(C(=O)Nc4ccccc4OC(F)(F)F)c(N)c3cc2C1 -17%
COC(=O)c1c(C)oc2ccc(N(C(=O)c3ccncc3)S(=O)(=O)c3c(C)cc(C)cc3C)cc12 12.9%
Cc1cccn2c(=O)c3cc(C(=O)NCc4cccnc4)c(=N)n(CCCO)c3nc12 2.35%
CC(C)(C)c1ccc(C(=O)NC2(C(F)(F)F)C(=O)Nc3c2c(=O)[nH]c(=O)n3-c2ccccc2)cc1 (stereo unspecified) 4.35%
Cc1sc2ncn(CC(=O)N3CCN(c4ccc(Cl)cc4)CC3)c(=O)c2c1S(=O)(=O)N1CCN(c2ncccn2)CC1 8.49%
Cc1ccc(Cn2c(SCC(=O)C(C)(C)C)nc3ccsc3c2=O)cc1 -21.3%
CC1=Nc2cc(C(=O)NCCc3ccccc3)ccc2Sc2c(C)ccc(C)c21 -28.6%

Reference: PubChem BioAssay AID1346428 (National Center for Advancing Translational Sciences (NCATS), 2018)
